# Results as given in PubChem BioAssay AID1671194 (National Center for Advancing Translational Sciences (NCATS), 2021).
# Out of some 140,000 compounds screened, about 240 (0.17%) were called active. The inconclusive results got no clear call from the source; some entries with a clear call stand among them for comparison. The call rests on the fitted dose curve; in most records, active means well fitted inhibition curve with a large enough effect; inconclusive means small, poorly fitted or top-dose-only effect; inactive means no such curve, though single readings can be large or run the other way. Where the call is inconclusive, the potency comes from a doubtful curve fit.
# Assay: Primary qHTS assay for inhibitors of alpha-synuclein gene (SNCA) expression; further: nearly all actives have a fitted effect of over 45% in size
# Conditions: HEK-293 SNCA-luciferase knock-in, luminescence, 24 h; series mostly up to 57.2 µM
# Potency means the concentration at half of the fitted maximal effect; tags describe the fitted curve by direction and shape.
row,Structure (SMILES),Potency
1,COc1ccc(CCNC(=O)c2ccc3nnc(-c4cccc(C(F)(F)F)c4)n3c2)cc1,"inconclusive: 11.2 µM [inhibitor, partial curve, poor fit]"
2,CC(CO)Nc1ncnc2c1CN(C1CCCNC1)C(=O)CN2C (configuration not stated),inactive
3,COc1cccc(CCC(=O)N2Cc3ccccc3OC3(CCN(C)CC3)C2)c1,"inconclusive: 2.82 µM [inhibitor, partial curve, poor fit]"
4,Cc1cccc(O[C@H]2COCCN(S(=O)(=O)c3c(C)noc3C)C2)n1,"inconclusive: 5.62 µM [inhibitor, single point]"
5,CC1CCCCN1CCN(C)c1nc(-c2ccncc2)nc2c1cnn2C (configuration not stated),"inconclusive: 31.6 µM [inhibitor, partial curve, poor fit]"
6,Cc1ccc(CNC(=O)c2nc(SCc3ccc(C)cc3)ncc2Cl)cc1,"inconclusive: 0.178 µM [inhibitor, partial curve, poor fit]"
7,CCC(CC)c1nc(COC(=O)C2=CN(Cc3ccc(OC)cc3)S(=O)(=O)N=C2C)no1,"inconclusive: 39.8 µM [inhibitor, single point]"
8,O=C(C1CCCN1[S+](=O)([O-])c1cccc(C(F)(F)F)c1)N1CCC(N2Cc3cccn3C2=O)CC1 (configuration not stated),"inconclusive: 10 µM [inhibitor, partial curve]"
9,CN(C(=O)C(C)(C)C)C1CCCc2ccccc21 (configuration not stated),"inconclusive: 39.8 µM [inhibitor, single point]"
10,Cc1n[nH]c(C)c1Cc1ccc(C(=O)N2CCC(CCOc3ccc(F)cc3)C2)o1 (configuration not stated),"inconclusive: 39.8 µM [inhibitor, single point]"
11,CO[C@@H]1[C@@H](O)[C@H](O)[C@@H](n2c3c(Cl)cccc3c3c4c(c5c6cccc(Cl)c6[nH]c5c32)C(=O)NC4=O)O[C@@H]1CO,"inconclusive: 0.961 µM [inhibitor, full curve]"
12,O=C(c1ccco1)N1CCC(Oc2ccccc2-c2nc(-c3ccccc3)no2)C1 (configuration not stated),"inconclusive: 31.6 µM [inhibitor, single point]"
13,CN(C)Cc1cccc(-c2cc3c(ccn3Cc3cccnc3)c(C3=CCOCC3)n2)c1,inactive
14,CCn1ccc(C(=O)N2C[C@H]3CNC(=O)[C@]34CCCC[C@@H]24)n1,"inconclusive: 39.8 µM [inhibitor, single point]"
15,Cn1nc2n(c1=O)CCN(C(=O)c1ccncn1)CC2,inactive
16,O=C(NCC1CC1)c1ccc2nnc(-c3cc[nH]c3)n2c1,inactive
17,CCOC(=O)c1c(Nc2cccc(O)c2)nnc(-c2ccccc2)c1-c1ccccc1,"inconclusive: 11.2 µM [inhibitor, partial curve, poor fit]"
18,COCc1cc(=O)n(CC(=O)Nc2cc(C)ccc2OC)c(N2CCOCC2)n1,"inconclusive: 3.55 µM [inhibitor, single point]"
19,COc1ccc(-n2c3c(c(=O)[nH]c2=O)C(NC(C)=O)(C(F)(F)F)C(=O)N3)cc1 (configuration not stated),"inconclusive: 31.6 µM [inhibitor, single point]"
20,COc1ccc(C2(C(=O)N3CCCN(c4cc(-c5ccc(C)c(C)c5)[nH]n4)CC3)CC2)cc1,"inconclusive: 20 µM [inhibitor, partial curve, poor fit]"
21,CC(C)NC(=O)NC[C@H]1O[C@H](Cc2cc(COc3ccccc3)on2)CC[C@@H]1O,inactive

row,Structure (SMILES),Potency
1,Cc1noc(C)c1[S+](=O)([O-])N1CCC(c2nn(C)c(=O)[nH]2)CC1,inactive
2,Cc1ccc([C@H]2CN(C(=O)c3[nH]nc(N)c3-c3ccccc3)C[C@@H]2N)o1,"inconclusive: 6.31 µM [inhibitor, single point]"
3,COCCN1CCCN(C(=O)c2ccoc2)c2ccccc21,inactive
4,Cc1nc(C(C)C)cc(N2CCN(c3ccccc3O)CC2)n1,"inconclusive: 39.8 µM [inhibitor, single point]"
5,Cc1noc(C)c1C(=O)N1CCCN(S(=O)(=O)c2ccccc2)CCC(=O)NCC1,inactive
6,CC(C)c1ccc(CC(=O)N2CCCc3ncc(C(=O)NCCc4c[nH]c5ccccc45)cc32)cc1,"inconclusive: 39.8 µM [inhibitor, single point]"
7,O=C(c1cc2ccccc2[nH]1)N1CCc2c(n(Cc3cccnc3)n(-c3ccccc3)c2=O)C1,"inconclusive: 39.8 µM [inhibitor, single point]"
8,O=C(c1cccs1)N1CCC2(CC1)CC(N(Cc1ccc(F)cc1)C1CC1)CCO2 (configuration not stated),"inconclusive: 39.8 µM [inhibitor, single point]"
9,COCC(=O)Nc1ccc(-n2ccnc2-c2ccc(O)c(OC)c2)cc1C,"inconclusive: 7.94 µM [inhibitor, full curve, poor fit]"
10,Cc1nc(N2CCN(C(=O)c3ccc(C(C)(C)C)cc3)CC2)cc(C(F)(F)F)n1,"inconclusive: 14.1 µM [inhibitor, single point]"
11,CCOC(=O)c1ccc(NC(=O)c2ccc3c(c2)c(C)c(C)n3Cc2ccc(F)cc2)cc1,"inconclusive: 39.8 µM [inhibitor, single point]"
12,CCNc1ncc2nc(-c3cc(F)cc(F)c3)c(=O)n(Cc3ccc(F)cc3)c2n1,"inconclusive: 39.8 µM [inhibitor, single point]"
13,O=C(NCCc1ccc(Cl)cc1)c1nc(-c2cccc(C(F)(F)F)c2)c2cnccn12,"inconclusive: 3.55 µM [inhibitor, full curve, poor fit]"
14,COc1cc(OC)cc(C(=O)NC2CCCN(c3cc(-c4ccccc4)[nH]n3)C2)c1 (configuration not stated),"inconclusive: 12.6 µM [inhibitor, single point]"
15,COc1cccc(CCC(=O)N2CCC(c3nn(C)c4c3COCC4)CC2)c1,"inconclusive: 2.51 µM [inhibitor, full curve, poor fit]"
16,C=CCCC(=O)N1CCOc2c(O)cc(-c3nc4ccccc4s3)cc2C1,inactive
17,CNC(=O)C1(N2CCC[C@H]2C(=O)N2CCC(C)CC2)COC1,"inconclusive: 35.5 µM [inhibitor, single point]"
18,Cc1ccoc1C(=O)N1CCCn2ccnc2C1c1cnn(C)c1 (configuration not stated),"inconclusive: 0.794 µM [inhibitor, full curve, poor fit]"
19,CC(C)(Oc1nn(Cc2cccc(Cl)c2)c2ccccc12)C(=O)NC1CCC(O)CC1 (configuration not stated),"inconclusive: 39.8 µM [inhibitor, single point]"
20,COc1ccc(Cn2cc(C(=O)c3ccc(Cl)cc3)c(=O)c3cc4c(cc32)OCO4)cc1,"inconclusive: 39.8 µM [inhibitor, single point]"
21,Cc1cc(C)c(Cn2c3ccccc3c3cnn(CC(=O)NC4CCCCCC4)c(=O)c32)c(C)c1,"inconclusive: 0.891 µM [inhibitor, partial curve, poor fit]"

row,Structure (SMILES),Potency
1,Cc1cn2nc(C(=O)NCc3ccccn3)cc2c(N2CCCC2)n1,"inconclusive: 3.16 µM [inhibitor, single point]"
2,Cc1cc(CN(C)c2ccc(-c3nc(COc4ccccc4)no3)cn2)on1,inactive
3,CC(=O)Nc1nonc1-c1nnc(SCc2ccccc2C)n1C,"inconclusive: 20 µM [inhibitor, partial curve, poor fit]"
4,Cc1ccc(C(=O)N2CCC([C@@H]3CNC[C@H]3CO)CC2)cc1C,"inconclusive: 25.1 µM [inhibitor, single point]"
5,O=C(c1ccoc1)N1CCC(c2noc(-c3ccncc3)n2)C1 (configuration not stated),"inconclusive: 8.91 µM [inhibitor, single point]"
6,CCn1cnnc1CC1CCN(C(=O)CCC(=O)n2nc(C)c3ccccc32)CC1,"inconclusive: 8.91 µM [inhibitor, single point]"
7,Cc1ccc(-c2nc3ccccn3c2Nc2c(C)cccc2C)o1,"inconclusive: 25.1 µM [inhibitor, single point]"
8,COc1ccc(CC(=O)NC2CCCc3c2[nH]c2ccc(F)cc32)cc1OC (configuration not stated),"inconclusive: 14.1 µM [inhibitor, partial curve, poor fit]"
9,CCOc1ccccc1N1CC(c2nc3ccccc3n2CCOc2ccc(OC)cc2)CC1=O (configuration not stated),"inconclusive: 14.1 µM [inhibitor, partial curve, poor fit]"
10,O=C(Nc1ccccc1)NC1CCN(Cc2ccc(-c3ccsc3)cc2)C1 (configuration not stated),inactive
11,Cc1ccccc1NC(=O)CN1C(=O)C(c2ccccc2)=NC12CCCCC2,"inconclusive: 28.2 µM [inhibitor, single point]"
12,CC(C)c1ccc(S(=O)(=O)c2cnc(SCC(=O)Nc3cccc(C(F)(F)F)c3)nc2N)cc1,"inconclusive: 17.8 µM [inhibitor, partial curve, poor fit]"
13,CC(NC(=O)C1CCN(c2nccc(Nc3ccccc3Cl)n2)CC1)c1ccc(F)cc1 (configuration not stated),"inconclusive: 39.8 µM [inhibitor, single point]"
14,O=C(CN1C(=O)CCC1=O)N1CCC(CCOc2ccccc2F)C1 (configuration not stated),inactive
15,O=C(c1ccccc1)N1CCC2(CC1)NCc1ccccc1NC2=O,inactive
16,Cn1nc(C2CCCN2)c2c(C(=O)NCc3ccncc3)cc(C3CC3)nc21 (configuration not stated),inactive
17,COc1ccc(CCC(=O)N2CCCN(c3cc(-c4ccc(Br)cc4)[nH]n3)CC2)cc1,"inconclusive: 39.8 µM [inhibitor, single point]"
18,FC(F)(F)c1ccc(N2C3CCC2CN(Cc2cccs2)C3)cc1,inactive
19,CCOc1ccc(CC(=O)NC2CCN(c3cc(-c4ccc(F)cc4)[nH]n3)CC2)cc1OCC,"inconclusive: 14.1 µM [inhibitor, partial curve, poor fit]"
20,Cc1ccc(Nc2ccnc(N3CCC(C(=O)N4CCOCC4)CC3)n2)cc1,"inconclusive: 10 µM [inhibitor, partial curve, poor fit]"
